# The other results are listed elsewhere or left out.
# B1: SRA-1 (Homo sapiens), P21757 (protein)
# chain: MEQWDHFHNQQEDTDSCSESVKFDARSMTALLPPNPKNSPSLQEKLKSFKAALIALYLLVFAVLIPLIGIVAAQLLKWETKNCSVSSTNANDITQSLTGKGNDSEEEMRFQEVFMEHMSNMEKRIQHILDMEANLMDTEHFQNFSMTTDQRFNDILLQLSTLFSSVQGHGNAIDEISKSLISLNTTLLDLQLNIENLNGKIQENTFKQQEEISKLEERVYNVSAEIMAMKEEQVHLEQEIKGEVKVLNNITNDLRLKDWEHSQTLRNITLIQGPPGPPGEKGDRGPTGESGPRGFPGPIGPPGLKGDRGAIGFPGSRGLPGYAGRPGNSGPKGQKGEKGSGNTLTPFTKVRLVGGSGPHEGRVEILHSGQWGTICDDRWEVRVGQVVCRSLGYPGVQAVHKAAHFGQGTGPIWLNEVFCFGRESSIEECKIRQWGTRACSHSEDAGVTCTL
# Legend:
# Test in all cases: glycan array binding signal (z-score within array); higher = stronger binding
# Conditions in all cases: glycan notation: IUPAC condensed, linker removed
# [1] = target: Gal(b1-4)GlcNAc(b1-3)Gal(b1-4)GlcNAc(b1-3)[Gal(b1-4)GlcNAc(b1-3)Gal(b1-4)GlcNAc(b1-6)]GalNAc
# Procedure, shortened: (§1)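 Glycan array binding is given as a within-array Z-score, which can be read as non-binding when negative. The arrays, 3228 of them, came from the Consortium for Functional Glycomics database and were retained only where the protein sequence was available. Z-scores were averaged across arrays of the same protein sequence at different concentrations or buffers and across linkers.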
# [2] = target: Gal(b1-4)GlcNAc(b1-3)Gal(b1-4)GlcNAc(b1-6)[Gal(b1-3)]GalNAc
# Procedure, shortened: as §1
# [3] = target: Gal(b1-4)GlcNAc(b1-3)Gal(b1-4)[Fuc(a1-3)]GlcNAc(b1-3)Gal(b1-4)[Fuc(a1-3)]GlcNAc
# Procedure, shortened: as §1
# [4] = target: Gal(b1-4)GlcNAc(b1-3)GalNAc
# Procedure, shortened: as §1
# [5] = target: Gal(b1-4)GlcNAc(b1-3)[Fuc(a1-3)GlcNAc(b1-6)]Gal(b1-4)Glc
# Procedure, shortened: as §1
# [6] = target: Gal(b1-4)GlcNAc(b1-3)[Gal(b1-4)GlcNAc(b1-6)]Gal(b1-4)GlcNAc
# Procedure, shortened: as §1
# [7] = target: Gal(b1-4)GlcNAc(b1-3)[GlcNAc(b1-6)]Gal(b1-4)GlcNAc
# Procedure, shortened: as §1
# [8] = target: Gal(b1-4)GlcNAc(b1-6)Gal(b1-4)GlcNAc
# Procedure, shortened: as §1
# [9] = target: Gal(b1-4)GlcNAc(b1-6)GalNAc
# Procedure, shortened: as §1
# [10] = target: Gal(b1-4)GlcNAc(b1-6)[Gal(b1-3)]GalNAc
# Procedure, shortened: as §1
# [11] = target: Gal(b1-4)GlcNAc(b1-6)[Gal(b1-4)GlcNAc(b1-3)]GalNAc
# Procedure, shortened: as §1
# Gal(b1-4)GlcNAc6P = target: Gal(b1-4)GlcNAc6P
# Procedure, shortened: as §1
# Gal(b1-6)Gal = target: Gal(b1-6)Gal
# Procedure, shortened: as §1
# Gal3S(b1-3)GalNAc = target: Gal3S(b1-3)GalNAc
# Procedure, shortened: as §1
# Gal3S(b1-3)GlcNAc = target: Gal3S(b1-3)GlcNAc
# Procedure, shortened: as §1
# [12] = target: Gal3S(b1-3)[Fuc(a1-4)]GlcNAc
# Procedure, shortened: as §1
# Gal3S(b1-4)Glc = target: Gal3S(b1-4)Glc
# Procedure, shortened: as §1
# Gal3S(b1-4)Glc6S = target: Gal3S(b1-4)Glc6S
# Procedure, shortened: as §1
# Gal3S(b1-4)GlcNAc = target: Gal3S(b1-4)GlcNAc
# Procedure, shortened: as §1
# [13] = target: Gal3S(b1-4)[Fuc(a1-3)]Glc6S
# Procedure, shortened: as §1
# [14] = target: Gal3S(b1-4)[Fuc(a1-3)]GlcNAc
# Procedure, shortened: as §1
# [15] = target: Gal3S(b1-4)[Fuc(a1-3)]GlcNAc6S
# Procedure, shortened: as §1
# Gal3S4S(b1-4)GlcNAc = target: Gal3S4S(b1-4)GlcNAc
# Procedure, shortened: as §1
# Gal3S6S(b1-4)GlcNAc = target: Gal3S6S(b1-4)GlcNAc
# Procedure, shortened: as §1
# Gal3S6S(b1-4)GlcNAc6S = target: Gal3S6S(b1-4)GlcNAc6S
# Procedure, shortened: as §1
# Gal4S(b1-4)GlcNAc = target: Gal4S(b1-4)GlcNAc
# Procedure, shortened: as §1
# Gal4S6S(b1-4)GlcNAc = target: Gal4S6S(b1-4)GlcNAc
# Procedure, shortened: as §1
# Gal6P(b1-4)GlcNAc = target: Gal6P(b1-4)GlcNAc
# Procedure, shortened: as §1
# Gal6S(b1-3)GlcNAc = target: Gal6S(b1-3)GlcNAc
# Procedure, shortened: as §1
# Gal6S(b1-3)GlcNAc6S = target: Gal6S(b1-3)GlcNAc6S
# Procedure, shortened: as §1
# Gal6S(b1-4)Glc = target: Gal6S(b1-4)Glc
# Procedure, shortened: as §1
# Gal6S(b1-4)Glc6S = target: Gal6S(b1-4)Glc6S
# Procedure, shortened: as §1
# Gal6S(b1-4)GlcNAc = target: Gal6S(b1-4)GlcNAc
# Procedure, shortened: as §1
# Gal6S(b1-4)GlcNAc6S = target: Gal6S(b1-4)GlcNAc6S
# Procedure, shortened: as §1
# GalNAc(a1-3)Gal = target: GalNAc(a1-3)Gal
# Procedure, shortened: as §1
# GalNAc(a1-3)GalNAc = target: GalNAc(a1-3)GalNAc
# Procedure, shortened: as §1
# [16] = target: GalNAc(a1-3)GalNAc(b1-3)Gal(a1-4)Gal(b1-4)Glc
# Procedure, shortened: as §1
# [17] = target: GalNAc(a1-3)GalNAc(b1-3)Gal(a1-4)Gal(b1-4)GlcNAc
# Procedure, shortened: as §1
# GalNAc(b1-3)Gal = target: GalNAc(b1-3)Gal
# Procedure, shortened: as §1
# [18] = target: GalNAc(b1-3)Gal(a1-4)Gal(b1-4)GlcNAc
# Procedure, shortened: as §1
# [19] = target: GalNAc(b1-3)Gal(a1-4)Gal(b1-4)GlcNAc(b1-3)Gal(b1-4)Glc
# Procedure, shortened: as §1
# [20] = target: GalNAc(b1-3)Gal(a1-6)Gal(b1-4)Glc
# Procedure, shortened: as §1
# GalNAc(b1-3)GalNAc = target: GalNAc(b1-3)GalNAc
# Procedure, shortened: as §1
# GalNAc(b1-3)GlcNAc = target: GalNAc(b1-3)GlcNAc
# Procedure, shortened: as §1
# GalNAc(b1-4)Gal(b1-4)Glc = target: GalNAc(b1-4)Gal(b1-4)Glc
# Procedure, shortened: as §1
binder,measurement,setting,value
B1,glycan array binding signal (z-score),[1],0.16
same,glycan array binding signal (z-score),[2],-0.129
same,glycan array binding signal (z-score),[3],-0.72
same,glycan array binding signal (z-score),[4],0.007
same,glycan array binding signal (z-score),[5],-0.099
same,glycan array binding signal (z-score),[6],0.025
same,glycan array binding signal (z-score),[7],-0.233
same,glycan array binding signal (z-score),[8],-0.121
same,glycan array binding signal (z-score),[9],0.967
same,glycan array binding signal (z-score),[10],0.284
same,glycan array binding signal (z-score),[11],-0.137
same,glycan array binding signal (z-score),Gal(b1-4)GlcNAc6P,-0.237
same,glycan array binding signal (z-score),Gal(b1-6)Gal,-0.038
same,glycan array binding signal (z-score),Gal3S(b1-3)GalNAc,0.526
same,glycan array binding signal (z-score),Gal3S(b1-3)GlcNAc,0.811
same,glycan array binding signal (z-score),[12],0.174
same,glycan array binding signal (z-score),Gal3S(b1-4)Glc,0.106
same,glycan array binding signal (z-score),Gal3S(b1-4)Glc6S,0.186
same,glycan array binding signal (z-score),Gal3S(b1-4)GlcNAc,0.181
same,glycan array binding signal (z-score),[13],0.672
same,glycan array binding signal (z-score),[14],0.263
same,glycan array binding signal (z-score),[15],0.304
same,glycan array binding signal (z-score),Gal3S4S(b1-4)GlcNAc,0.065
same,glycan array binding signal (z-score),Gal3S6S(b1-4)GlcNAc,0.399
same,glycan array binding signal (z-score),Gal3S6S(b1-4)GlcNAc6S,0.189
same,glycan array binding signal (z-score),Gal4S(b1-4)GlcNAc,-0.198
same,glycan array binding signal (z-score),Gal4S6S(b1-4)GlcNAc,-0.23
same,glycan array binding signal (z-score),Gal6P(b1-4)GlcNAc,0.22
same,glycan array binding signal (z-score),Gal6S(b1-3)GlcNAc,-0.15
same,glycan array binding signal (z-score),Gal6S(b1-3)GlcNAc6S,-0.393
same,glycan array binding signal (z-score),Gal6S(b1-4)Glc,0.392
same,glycan array binding signal (z-score),Gal6S(b1-4)Glc6S,-0.142
same,glycan array binding signal (z-score),Gal6S(b1-4)GlcNAc,0.335
same,glycan array binding signal (z-score),Gal6S(b1-4)GlcNAc6S,-0.028
same,glycan array binding signal (z-score),GalNAc(a1-3)Gal,0.136
same,glycan array binding signal (z-score),GalNAc(a1-3)GalNAc,0.339
same,glycan array binding signal (z-score),[16],-0.393
same,glycan array binding signal (z-score),[17],0.272
same,glycan array binding signal (z-score),GalNAc(b1-3)Gal,-0.386
same,glycan array binding signal (z-score),[18],1.15
same,glycan array binding signal (z-score),[19],-0.081
same,glycan array binding signal (z-score),[20],-0.372
same,glycan array binding signal (z-score),GalNAc(b1-3)GalNAc,0.296
same,glycan array binding signal (z-score),GalNAc(b1-3)GlcNAc,0.258
same,glycan array binding signal (z-score),GalNAc(b1-4)Gal(b1-4)Glc,-0.126

# From the supplement of paper PMC8728848
